# Results from the RNAGym collection of RNA variant scans (doi:10.7554/elife.90254).
# The source gives no read counts; variants with many changes may rest on few reads.
# B1: LINE1-full (parent)
# chain: UACGUAGGUGGUUUUCCCCUGAUAGUGCUAAGGGGGCCUGGAAGUUUGGACUGGGCAGAGCUCAACACAGCGUGGCAAAGUGGCUGUGGCUAGACUGCCUCUCUGGAUUCCUCGUCACUCAGCAGGGCAUCUCUGAGAGAAAUGCC
# Variants of: B1
# Test: self-cleavage, relative activity (ratio to wild type); higher = more cleavage; in vitro, sequencing; the parent is a self-cleaving ribozyme
row,Variant,self-cleavage
1,U39C A69U U130C,0.14
2,U39C A77G A94U,0.95
3,U39C A77G A138G,1.64
4,U39C A77U A78G,0.72
5,U39C A78G A142G,0.99
6,U39C A79G C145A,0.98
7,U39C A79U U91C A141G U143A,0.95
8,U39C A117U A121C A136G U143C,1.79
9,U39C A121G G122A,1.12
10,U39C A124G A141G C145G,0.87
11,U39C C51U U132C,0.84
12,U39C C56U U73C,0.04
13,U39C C66A A79G G93U A142G,0.03
14,U39C C71U U73C U109C,0.72
15,U39C C90A A121G,0.03
16,U39C C98U G125A,0.06
17,U39C C111U G114A,0.85
18,U39C G40U U130C,1.86
19,U39C G44A U119C,1.7
20,U39C G53U U91A A92G,0.11
21,U39C G58C A77C,0.03
22,U39C G82A A117U U143C,1.32
23,U39C G83U A142G,0.48
24,U39C G89U A140G,0.05

row,Variant,self-cleavage
1,U39C U45C A57G U85A U119C,0
2,U39C U45C A77U,1.04
3,U39C U46A A124G G127A,0.87
4,U39C U46C U52C,0.81
5,U39C U47A G54C A77U U115C,0.69
6,U39C U47G A77G,1.47
7,U39C U52A A67G A78G A136U,0
8,U39C U52A A117C,1.23
9,U39C U52A U119C U130C C146U,1.61
10,U39C U52C U81A C103U,0.04
11,U39C U52G G75A G139A,0.48
12,U39C U62A U91C,0.18
13,U39C U62C A92U,0.17
14,U39C U62C C99U,0.02
15,U39C U62C G72A A117U,0.02
16,U39C U62C U109A,0
17,U39C U73C A94U,0.29
18,U39C U73C A124U,0.42
19,U39C U73C U134C,0
20,U39C U81A A94G,0.34
21,U39C U81A G86A A124G U134C A138G,0.03
22,U39C U85C U119A U143C,0
23,U39C U87A A117G A138U,0
24,U39C U87C A138U,0.04

row,Variant,self-cleavage
1,U39C U91A U134A,0.44
2,U39C U91C A124G,0
3,U39C U96C U132C,0.12
4,U39C U100C C113U U143C,1.43
5,U39C U102C U119C,3
6,U39C U108A C113U,0.49
7,U39C U108C U109C,0
8,U39C U108C U130C,2.25
9,U39C U109C U143A,0.43
10,U39C U112A A117G,1.08
11,U39G A50G A69U U73G U112C,0
12,U39G A136U A140G,0.32
13,U39G U45C U81A U85A A136G G144A,0.06
14,U39G U46C C116U U130C,1.92
15,G40A A42G U115C,0
16,G40A A57U G60A U134C A142G,0.02
17,G40A A59G A65G,0.11
18,G40A A59G U91A,0.07
19,G40A A64G U134C,0.18
20,G40A A67G A77G A142G,0.25
21,G40A A77G C128G,1.52
22,G40A A117U U119A A138G,1.39
23,G40A A121U A140U U143C,0.75
24,G40A A129U A142G,1.68

row,Variant,self-cleavage
1,G40A C56U A129G,0.08
2,G40A U45A G75A U132C,0.75
3,G40A U47A A77U,0.95
4,G40A U52A A67G,0.45
5,G40A U62C U81A A94U,0.02
6,G40A U85C U130A,0.11
7,G40A U96C A117G C145A,0
8,G40A U96C U102C,0.03
9,G40A U104C A121G,1.53
10,G40A U132C A136G,1.11
11,G40U A42G A67C,0
12,G40U C71U A136G,0.71
13,G40U U47C U115A,2.27
14,G40U U73A C111U U115C G126A U143C,1.51
15,G40U U91C U100G A121U A138G,0.33
16,G40U U91C U102A A142G,0.74
17,G41A A42U A94U,0.1
18,G41A A59G U102G G105A,0.1
19,G41A A65G G75U C120A C131U,0.03
20,G41A A77U G105A,1.17
21,G41A C61U U96C,0.05
22,G41A C63A A65C,0.01
23,G41A C84U U104C,0.12
24,G41A G137U A142G,1.42

row,Variant,self-cleavage
1,G41A U47A A57U A121G,0.12
2,G41C A78G U91A U100C,0.64
3,G41U A43G U52C A64U G82A C146G,0.48
4,G41U A43U U47C A121G A124U,1.79
5,G41U C99U A121U A136G,0.51
6,G41U C123U U132A,1.2
7,G41U C123U U132C,1.21
8,G41U U62A A64U A138G,0.02
9,A42C A43G U87A,0.14
10,A42C A50G C56U U104A,0.1
11,A42C G49U U109C A138G A140G,0.62
12,A42C U46A U62C,0.11
13,A42C U46C A121C,0
14,A42C U47A G49A A69U,0.05
15,A42C U108C A129U,0
16,A42G A43C U85C,0
17,A42G A43G A59U A107G C120U,1.4
18,A42G A43G A92U,0.5
19,A42G A43G A121G,0.44
20,A42G A43G U45G,0.43
21,A42G A43U C99G C118U A124U,0.39
22,A42G A43U U45C,1.36
23,A42G A43U U52C,1.31
24,A42G A50G A79U U85C,0.59

row,Variant,self-cleavage
1,A42G A50G C71A A121G U130A U134C A142G,0.16
2,A42G A50G U85A A107C,0
3,A42G A50G U104A A107U,0.57
4,A42G A50U U115C,1.24
5,A42G A57G A65G,0
6,A42G A57G G70U U102C,0.05
7,A42G A57G U102C,0
8,A42G A57G U109A,0.47
9,A42G A57U A65U,0.06
10,A42G A57U C71A U112C,0.05
11,A42G A57U U132C,0.15
12,A42G A59G A78G,0
13,A42G A59G A124U,0.09
14,A42G A59G U115C,0.32
15,A42G A65G C146U,0.05
16,A42G A67G A141U,0.46
17,A42G A67U A107G,0
18,A42G A67U U85A,0.04
19,A42G A67U U115C,0.23
20,A42G A77G U85C,0
21,A42G A78G A117U A141U,2.53
22,A42G A78G U81C U102C,0.71
23,A42G A78U A121G,1.71
24,A42G A79G A117G,0

row,Variant,self-cleavage
1,A42G A79G A121G,1.15
2,A42G A79G A136G,0.85
3,A42G A79G U85A A124G,0.2
4,A42G A79G U91A A140G,1.23
5,A42G A94G A142G,0.35
6,A42G A94G U100C C101A U132C,0
7,A42G A94G U104A A107U A138U,0.59
8,A42G A94U A140G,0
9,A42G A117U U143C,1.58
10,A42G A121G A129U,1.19
11,A42G A124G A136G A140G,0.37
12,A42G A124U U130C U143C,2.43
13,A42G C51A U52C U108C C113U,1.61
14,A42G C56G A57U U62C U112A,0.04
15,A42G C71A U81A,0.4
16,A42G C76U U100C A121U A142G,1.74
17,A42G C113U A138G,0.44
18,A42G G44A U91C,0.97
19,A42G G48A U73G,1.39
20,A42G G54A U104C A141G,0.44
21,A42G G58C A121G A138G,0
22,A42G G58U U73A U100C A138U,0.03
23,A42G G60U U143C,0.04
